The values below come from ChEMBL document CHEMBL4888484, “Replenishing the malaria drug discovery pipeline: Screening and hit evaluation of the MMV Hit Generation Library 1 (HGL1) against asexual blood stage Plasmodium falciparum ,using a nano luciferase reporter read-out” (2022).

The whole screen tested about 150,000 compounds, of which about 540 (0.36%) showed an effect of 50% or more. Some of the results follow.

For this assay, the system named is Plasmodium falciparum. The assay is described as follows: Primary screen in NF54 nanoGlo assay, in single point, at 2uM, 72h; a lower Z score goes with more inhibition. The assay is classed as functional, Erythrocyte. The note with it: timepoint 72 hour.
In the case of `CCc1ccccc1CNC(=O)Nc1cccc(C(=O)N(C)C)n1`, the “% Inhibition” value is recorded as -14% and the Z score turned out to be 2.11.
On the same counts, the results for `CCOc1ccc(C(=O)N2CCC3(CC2)NC(=O)c2cc(F)ccc2N3CC)cc1` are -1% and 0.19.
For `COc1ncccc1-c1nc(C)ncc1C(C)C` the same measures were 12% and -1.63.
In the case of `O=C(CCCc1ncc(-c2ccccc2)o1)N1CCNCCC12CCOCC2`, the “% Inhibition” value is -16% and the Z score came to 2.69.
For `CCc1nc2cc(C(=O)N[C@H]3CCOC(C)(C)C3)cc(NC(=O)c3ccccc3OC)c2n1C`, the “% Inhibition” value is -1% and the Z score is listed as 0.21.
For `COC(=O)C1CCCCN1CCOC1CCCCO1` (stereo not given) the same measures were -11% and 1.9.
As to `CCN1CCC2CCC(C1)N2C(=O)C(C)=Cc1ccc(OC)c(F)c1` (stereo not given), the “% Inhibition” value was 4% and the Z score is -0.51.
Consider `O=C(Cc1nnc(-c2ccc(Br)cc2)o1)NCc1ccccc1`, for which the “% Inhibition” value was -2% and the Z score was 0.29.
For `Cc1c(C(=O)NCCc2ccc(Cl)cc2)sc2ncnc(N(C)C3CCCCC3)c12` the same measures were -8% and 0.73.
On to `N#Cc1ccc(C(NC(CC2CCOC2)c2ccccc2)C(N)=O)cc1` (stereo not given), for which the “% Inhibition” value was 2% and the Z score is -0.35.
On the same counts, the results for `Cc1ccn2c(NCc3ccc(C#N)s3)nnc2c1` are -1% and 0.06.
On the same counts, the results for `COc1ccc(CN(C)Cc2nccs2)c(Cl)c1OC` are -2% and 0.37.
Take `COCCN1CC(=O)N[C@H]2CN(C(C)C)C[C@@H]2OCc2cccc(c2)Oc2cc(ccc2OC)CCC1=O`: the “% Inhibition” value was -10% and the Z score is on record as 1.24.
For the molecule `CN(CC[C@H]1CCCCO1)C(=O)Nc1cccc(N2C(=O)CN(C)C2=O)c1`, the “% Inhibition” value is 6% and the Z score is given as -0.88.
Consider `Fc1cccnc1NCc1nnc2n1CCCCC2`, for which the “% Inhibition” value was -15% and the Z score came to 2.
With `N#Cc1ccc(CN(Cc2cccc(F)c2)c2ccc3nnnn3n2)cc1`, the “% Inhibition” value was -3% and the Z score stood at 0.37.
For `Cc1ccn(CC(=O)N2CCCN(CC(C)C)[C@H](c3nc(C)no3)C2)n1` the same measures were 3% and -0.47.
On the same counts, the results for `CCN(CC)Cc1cnc2c(C(=O)N(C)Cc3ccccn3)cnn2c1` are -11% and 1.35.
As to `C[C@H](Oc1cccc2ccccc12)C(=O)NCc1csc(=O)[nH]1`, the “% Inhibition” value is -10% and the Z score worked out at 1.
Turning to `CC(C(=O)Nc1ncccn1)N1CCCC1Cn1cccn1` (stereo not given), the “% Inhibition” value worked out at 38% and the Z score is recorded as -5.85.
Take `C[C@H]1C(=O)Nc2ccccc2CN1Cc1nnnn1C(C)(C)C`: the “% Inhibition” value is on record as 6% and the Z score is reported as -0.91.
With `N#Cc1ccc(N2CCC=C(F)C2)nc1`, the “% Inhibition” value is -3% and the Z score is 0.51.
For `CCc1ncnc(N(C)Cc2ncc(Br)cn2)c1F` the same measures were -4% and 0.68.
Consider `O=C(NC(c1ccccc1)[C@H]1C[C@@H](O)C1)c1cc(CO)ccn1` (stereo not given in full), for which the “% Inhibition” value came to 0% and the Z score is listed as 0.04.
For `CC(=O)N1CCC(CNC(=O)c2cc[nH]c2C2CC2)CC1`, the “% Inhibition” value is reported as -6% and the Z score came out at 0.75.
`O=S(=O)(NCCc1n[nH]c(Cc2ccc(F)cc2)n1)c1ccccc1`: the “% Inhibition” value is given as -3% and the Z score turned out to be 0.64.
For `O=C(NCC1(O)CCCC1)C1CC2CCC1O2` (stereo not given) the same measures were -2% and 0.25.
As to `COc1cccc(CNC[C@H]2COCc3nc4ccc(C)cc4n32)n1`, the “% Inhibition” value was 0% and the Z score was 0.01.
On the same counts, the results for `Cc1c(CNC(=O)C(C)(C)[C@H](O)c2cccc(O)c2)cnn1C` are -14% and 1.66.
For `CC1=C(c2ccc(Cl)cc2)S(=O)(=O)N=C1N1CCC(C(=O)NCCN(C)C)CC1` the same measures were -18% and 1.96.
For `CC1CCCN(S(=O)(=O)N2CCCC2CC(O)c2ccco2)C1` (stereo not given), the “% Inhibition” value is on record as -8% and the Z score was 0.74.
With `O=C1C[C@H](c2ccccc2F)c2c[nH]nc2N1`, the “% Inhibition” value turned out to be 5% and the Z score was -0.54.
On the same counts, the results for `Cc1ccc(C)n1CC(=O)NCCn1cnc2cc(Cl)ccc21` are -8% and 0.96.
For `Cc1c(NC(=O)c2ccco2)cccc1-c1nc(C2CC2)n[nH]1` the same measures were -11% and 2.15.
On the same counts, the results for `Cc1cc(F)cc(C(=O)N2C[C@H](O)[C@@H](N3CCN(C)CC3)C2)c1` are -8% and 1.41.
As for `CC[C@@](NC(=O)c1sc(C)nc1C)(C(N)=O)C(C)C`, the “% Inhibition” value is -2% and the Z score is on record as 0.25.
In the case of `C[C@@H](C(N)=O)N(C)Cc1c(F)cccc1Cl`, the “% Inhibition” value was -16% and the Z score is 2.12.
As for `O=S(=O)(c1ccccc1)N1CCN(Cc2c(-c3ccc(Cl)cc3)nc3ccc(-c4cc5ccccc5s4)cn23)CC1`, the “% Inhibition” value is recorded as -11% and the Z score is listed as 1.08.
On the same counts, the results for `Cc1ncc(CNC[C@H]2CN(Cc3ccccc3)CCCO2)n1-c1ccccc1` are 2% and -0.29.
On the same counts, the results for `COc1ccc(-c2nc(-c3ccc(Oc4ccc(NC(C)=O)cc4)cc3)no2)c(OC)c1` are -10% and 1.14.
For `Cc1nc(C)c(CC(=O)NCc2cn3c(C)cccc3n2)s1` the same measures were -16% and 2.92.
Consider `COCC1(C(=O)N2CCO[C@H](c3ccc(C)cc3C)C2)CCC1`, for which the “% Inhibition” value is recorded as -31% and the Z score amounted to 3.64.
For `COc1ccc(OCc2cc(C(=O)Nc3ccc4c(c3)OCO4)c(C)o2)cc1` the same measures were -11% and 2.12.
As to `O=C(N[C@H]1CCN(Cc2cccnc2)C[C@@H]1O)c1ccc2ncsc2c1`, the “% Inhibition” value amounted to 3% and the Z score was -0.38.
For `CCc1cnc(NC(=O)c2ccccc2-c2nnc(C)o2)s1` the same measures were -2% and 0.33.
As for `COc1ccc(OC)c(CNC(=O)c2csc(-c3ccnc(N4CCOCC4)c3)n2)c1`, the “% Inhibition” value was -13% and the Z score came out at 1.7.
On the same counts, the results for `Cc1noc(Cn2ccc3ccn(Cc4cccnc4)c3c2=O)n1` are -14% and 1.23.
As to `Cc1ccc(C)c(C(=O)c2ccccc2C(=O)NCc2cnn(C)c2)c1`, the “% Inhibition” value was -3% and the Z score is on record as 0.51.
As for `Cc1cc2c(cc1S(=O)(=O)N1CCC[C@H]1C(=O)N1CCc3ccccc31)OCC(=O)N2`, the “% Inhibition” value is given as -7% and the Z score turned out to be 0.85.
Take `CCCC(CCC)C(=O)Nc1ccccc1C(=O)O`: the “% Inhibition” value was -7% and the Z score is given as 0.9.
For `CC(C)(C)NC(=O)NCc1cncc(-c2ccsc2)c1` the same measures were -6% and 0.93.
For `O=C(NC[C@H](O)c1ccc(O)cc1)c1cnc(-c2cccnc2)nc1` the same measures were -2% and 0.47.
On the same counts, the results for `Cc1nn(C)c2nc(N3CCN(S(=O)(=O)N(C)C)CC3)sc12` are -29% and 3.39.
On to `Cc1ccc(S(=O)(=O)N2CCN(C(=O)CCn3nc(C)c(Br)c3C)CC2)cc1`, for which the “% Inhibition” value is given as -2% and the Z score worked out at 0.33.
On the same counts, the results for `COc1cc2c(cc1OC)[C@@H](c1ccccn1)N(C(C)=O)CC2` are -25% and 3.39.
On to `CCCCOc1cc(OCCC)ccc1C(=O)NC1CN(C(C)=O)C1`, for which the “% Inhibition” value is -11% and the Z score worked out at 1.42.
On to `COc1ccc(NC(=O)c2coc(Br)c2)cn1`, for which the “% Inhibition” value is reported as 6% and the Z score was -0.88.
On the same counts, the results for `Cc1cc(C(=O)N(Cc2ccco2)C2CC2)on1` are -15% and 1.5.
On to `O=C(N[C@@H]1c2ccccc2CC[C@@H]1O)C1CCc2cccc(O)c21` (stereo not given in full), for which the “% Inhibition” value was -12% and the Z score is listed as 1.24.
For `CC12CN(S(=O)(=O)c3ccc4c(c3)OCCO4)C3(C(=O)NCCc4ccccc4)CC1CCC23C` (stereo not given) the same measures were -11% and 1.42.
Regarding `Cc1nc(N)ncc1C(=O)NC[C@@H]1C[C@H](F)CN1`, the “% Inhibition” value is reported as -11% and the Z score is given as 1.58.
`COCc1nnc2c3ccc(Cl)cc3nc(N3CCN(C(=O)c4c(F)cccc4F)[C@@H](C)C3)n12`: the “% Inhibition” value was -20% and the Z score is on record as 2.38.
With `CC[C@@H]1Oc2ccc(NC(=O)c3ccccc3)cc2CN(C2CCCCC2)C1=O`, the “% Inhibition” value was -4% and the Z score amounted to 0.49.
On the same counts, the results for `CCCc1nnnn1Cc1nc2cc(C(F)(F)F)ccc2o1` are 0% and 0.05.
Turning to `CCN1CCCC[C@@H]1CNc1ncccc1C(N)=O`, the “% Inhibition” value is given as 1% and the Z score is listed as -0.2.
Consider `CC(=O)c1c(C)[nH]c(C(=O)N2CCn3c2nc2ccccc23)c1C`, for which the “% Inhibition” value is -6% and the Z score stood at 1.07.
For `CS(=O)(=O)C1(C(=O)NCC(=O)N2CCCC2)CCCC1` the same measures were -3% and 0.52.
For `Cc1cc(Br)cn2c(CNC[C@@H](CO)c3cccnc3)cnc12` the same measures were -7% and 0.72.
`CC(C)CN(CC(=O)N(CCc1ccccc1)Cc1ccco1)C(=O)C1CCC1`: the “% Inhibition” value is recorded as -8% and the Z score was 0.77.
On the same counts, the results for `Cc1c(Cl)cccc1S(=O)(=O)N1CCc2nc(-c3ccccc3)sc2C1` are -6% and 0.64.
For `Cc1nc(C(=O)Nc2cccc3cccnc23)c[nH]1` the same measures were 15% and -1.76.
Consider `COc1ccccc1NC(=O)COc1ccccc1C(=O)Nc1nccs1`, for which the “% Inhibition” value turned out to be 2% and the Z score is on record as -0.23.
As for `Cc1ccc(CNC(=O)[C@H]2CCCN(C3CCN(C(C)C)CC3)C2)s1`, the “% Inhibition” value is 9% and the Z score is listed as -1.12.
For `C[C@]1(NC(=O)Nc2cccc(-n3cncn3)c2)CCS(=O)(=O)C1` the same measures were 1% and -0.1.
For `Cc1nc([C@H]2CC23CCN(Cc2c(F)cccc2F)CC3)no1`, the “% Inhibition” value was -10% and the Z score came to 1.35.
On the same counts, the results for `O=C(O)c1cc2n(n1)CCN(C1Cc3ccccc3C1)C2` are -9% and 1.63.
For `CC(C)(C)[C@@H]1CN(C(=O)c2ncccc2O)c2ccccc21` the same measures were -15% and 2.38.
On the same counts, the results for `Cc1ncsc1C(=O)Nc1ccc2c(c1F)CCNC2=O` are -13% and 2.07.
Take `O=S(=O)(C[C@H]1CCOC1)N1CCN(c2ccccc2O)CC1`: the “% Inhibition” value is -4% and the Z score came to 0.36.
As for `CN1C(=O)[C@H](CC(=O)NCc2cccc(-c3ccccc3)c2)N(C)C1=O`, the “% Inhibition” value is -6% and the Z score is recorded as 0.97.
On the same counts, the results for `COc1ccc(CN(C)C(=O)C[C@]2(c3ccccc3F)CC(=O)N(C3CCCCC3)C2=O)cc1OC` are -2% and 0.43.
On the same counts, the results for `CC#CC[C@@H](CO)NCc1c(C)nc2sc(C)cn12` are 4% and -0.54.
Turning to `O=C(c1ccc(S(=O)(=O)N[C@H]2CCOC2)cc1)N1CCCC1`, the “% Inhibition” value was -6% and the Z score was determined as 1.13.
In the case of `COc1ccc(NC(=O)Nc2nnc3cccc(OC)n23)cc1`, the “% Inhibition” value is recorded as -11% and the Z score is listed as 1.23.
As for `CC(C)(C)CC(=O)N1CC(=O)N2CC[C@@H](CC(=O)NCCN3CCCC3)[C@@H](/C=C\COc3ccccc3C1)C2`, the “% Inhibition” value was -7% and the Z score was found to be 1.08.
